Assay results taken from the RNAGym collection of RNA variant scans (doi:10.7554/elife.90254).
Read counts are not given, so values of variants with three or more changes are uncertain.

B1: LINE1-mini (parent)
chain: GGCAGAGCUCAACACAGCGUGGCAAAGUGGCUGUGGCUAGACUGCC

Variants of: B1
Assay: self-cleavage, relative activity (ratio to wild type); higher = more cleavage; in vitro, sequencing; the parent is a self-cleaving ribozyme

Variant	self-cleavage
G21C U34C C42A	0.06
G7U G21U U28A G36A	0.03
G7U C18U C23U C42U	0.21
C3U G36U C46G	0.03
G1C G21A A26U U32A C37G A41C U43A	0
G5A U20C G40A G44A	0.02
G2U C10A A14C	0.02
C15A G29A U34A C37G G40U	0.02
A12U A24G C31U	0.07
A14C G19C A26U U32A C42U	0.06
A6G G7C C8U U9C C10A A12C C13A A14C U38G	0
G1U A39G U43G	0.05
G2C A41C C46U	0.02
A6G C10G C13U G17U A25G U32A	0.01
C8A A16U C31U A39G	0.16
A4U G7C G21A	0.29
G7C A11C G22A A25U G27A G35U G36C A39U	0
A12C C13G G17C C31A	0.02
A12U C18G C23A A41U C46U	0.03
G21A C23A A24C	0.27
G5U G33U G40A U43G	0.07
C3A G33C G40A G44A	0.03
G5U A25U U28C G35C	0.02
C23A A39G G44C	0.09

Variant	self-cleavage
C8U A26G G27A G35C A41G	0.09
C3A U20A A24G G33A	0.12
A6G C18A G36C	0.02
G19U U20A C37G A41U	0.04
A11C A26C G27U G35C C45G	0.02
A6C C10A G17C A24U U28C C31U	0.01
G1A C8G A11C G35U	0.02
A6U U9G C23U A26C	0.02
A6G G7C U9A A11U A41U	0.02
G7U G19C G30C C42U	0.04
G2U C8G G17C C46A	0.03
C8G C10U A25U U34G G35A	0.01
G2A U9C A12C A25C G29U	0.02
A4U A12U C46G	0.08
G33U G40A C46G	0.28
G29U G33U G36C C42G U43A	0.02
G5U U9C C18G G27A	0.07
C8A A16G C37G A41U	0.19
A16U G21A G36C A39U A41C	0.02
G2C G19A U38C C46U	0.02
C3A U9A G27A U38C A41C U43C	0.03
C13U G36A G40U	0.01
C3U G5U U38C	0.02
C10A G27U A41G	0.03

Variant	self-cleavage
G2A C3G A11C	0.11
C3U C37U U38G	0.03
U9A C15A G21C C31A	0.08
A11C C15G G35A C37A	0.01
A6U C37A U38A	0.02
G1A G2A A16U C18G U20A G22A	0.16
G2A C13G A16C C18U G22A A24U C37A U38A C46U	0.06
C3U C18G G35C	0.24
A25G C31U A39G	0.02
G1U A16U C23A	0.05
C3A C13G U20A G21U G22U G36A	0.67
C8A G19C G35A G44A	0.08
U9C A14G A24G A26C	0
C3A A6C G33U G40A	0.04
A26C G40C C42U	0
U9C C10A U34C C42U	0.04
G2A A16U G22A U28C G29C	0.28
G22U C42U U43A	0.1
A4U U32A A39G C46A	0.09
G2A C18U G21C A24U G30A	1.04
C18G A24C A25G G29C G33U	0.02
A6G A11C A14G G40A	0
U9A G27U U34A C42G C46G	0.03
C18U G19A G21A A25U C31G A39G	0.01

Variant	self-cleavage
C15U C23A A25U	0.79
C3A U28C G30U U34C	0.13
G19A G21A C23U	0.2
C15G C18A A25C	0.03
C8A A16C G21A U38G	0.03
G1A A6G C8U A16G A24U C45A	0.03
U28C G35U U38A G40U G44U C45A	0.03
A12G A16C G29A G44U C46A	0
C8G C15U A24U C45G	0.05
G2U G21C U32G C42A	0.02
G19C G44U C45A	0.04
G5A U9C G19U	0.02
A14U G19A A25C	0.15
C15G C18U G27U C42G	0.06
C10U A11G C13A A14C A16G	0.04
C23A A41G G44U C45G	0.04
G29A U38G A39G	0.02
A14G A16G U32A G40A	0.01
G2U C15U A25C G40U G44U	0.31
C3U C23A A39C C46U	0.17
C8A C10A G40A	0.02
A6G G21A U28A G29U	0.03
G2C A4C U28C U34A	0.05
U20A U34A C37U	0.02

Variant	self-cleavage
G21C G30U G35A G40U A41U C46A	0.02
A4C G5U C23U C37G C45U	0.03
C10G A14G C18U U28C C45G	0.02
C13G U34G C45U	0.01
G7A A12U U20C G27A	0.15
C3A A25U A26U	0.42
A11U A14U C42A G44C	0.03
C8G U28A A41C	0.07
G2U C13U A26C G30U C46A	0.04
C18U A26C C37U A41U	0.04
G1U C3U U9A A41C	0.06
G2C G21C A26U	0.05
C10G C15A G35U U43C C46A	0.01
U20G C37G U38A C45A	0.01
A6C C8U C15A C18U G33U G35U	0.01
C8A G27A C37A	0.08
G2A A6C A14U G33U C46U	0.13
G7A A26G G30A G35A U38A A39U	0.08
G1A C8G C23G U38C A41U	0.81
G7A U20C G29A	0.08
G2U G29C G35U C37U	0.02
A6G G17C A25C U43G C46A	0.01
A11U A12G A16G C45U	0
C3U G7A C42G	0.12

Variant	self-cleavage
C15U A24U G30A	0.11
A24U U28A G30U G36U	0.22
A12G C15G G33U	0.02
U34A U38A G44C	0.01
G7U A14C C31G U38C	0
G1A A4U A11G C15A G19A G27C G30U U38A G44C	0.01
G17C C23A U34G	0.01
G35U C37A C42U	0.07
G7A G22C A41G	0.25
A4G A6G U9A	0.15
G5C C10G A14C C18U A39G	0.01
C15A A16C C37U G44C	0
G7A C13G A14G G36U G44U	0.02
G1C C10U U20A U38C	0.02
C13G A25C U28A G35C	0.5
G1U U9C C18U G29C G33A G36A	0.01
C3G C8G U34G	0.05
G1A G19A A25C C37G G40C G44U	0.03
C10G U20G G30A	0.08
G2C G17U U28C	0.04
C10A G17A U34A A41C	0.04
A6C C10A G27U G40A	0.03
G7A C8G G17A G29U C31U	0.01
G7U G17C G27A U32G G33U	0.07

Variant	self-cleavage
G2A C8A G17A G19U A26G C42U G44A	0.1
A12U A25G U28C G40C	0.05
C8U G17U A25C	0.04
C8A A11U G22A C23A A41C	0.02
G17A U28C G35U C42A	0.07
G1C C15U G40U	0.07
C8G C10U C13U C18U G19U A24G	0.02
C10A A12G C13U	0.03
G1C G5A A11G U32C	0.02
G30C A39C U43C	0.07
C3G A11G G19A G35U	0
U20C G21A G33C G36A	0.03
U9A A14U G19U G29U	0.04
G1C G7C C8U C18A A25C C45A	0.02
G7A U9C G40U	0.02
C3U U34A U38G C45U C46A	0.01
G2A C31A U32G	0.25
G1A U9C A11U A24C G29A G30C G33C A39U	0.02
U9A G22U A26C G40A	0.11
G2U A11U G17C C18G U43A	0
G7U G17A G44U	0.21
U9G G17U G40A	0.03
U20C G22U G29A	0.99
